The series relates to ATP. As to the kind of experiment: switch fluorescence ratio, 500 uM ATP over buffer (Cy3 cluster intensity, sum of 5 cycles each) (fold (ratio)); higher = stronger signal-on switching upon ATP binding; sequences stand for … in TCGTCGGCAGCGTCAGATGTGTATAAGAGACAGTTTTTTTTTTTTTTTTTTTTTTTTT…TC. The following applies: aptamer strand: ATP DNA aptamer (quencher-CACCTGGGGGAGTATTGCGGAGGAAGG + anchor), 100 nM annealed; ATP concentration: 500 uM; one replicate. In a few lines: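 Imaging in selection buffer was followed by imaging after 15 min with 500 uM ATP at 22 °C, for Cy3-labelled switching-strand clusters annealed to 100 nM quencher-labelled ATP aptamer on a modified Illumina MiSeq flow-cell. Five of these buffer/ATP cycles ran, separated by NaOH stripping and re-annealing. The fluorescence ratio per cluster is summed target-cycle over summed buffer-cycle Cy3 intensity, averaged per switch-domain sequence; clusters outside 100-1000 RFU were removed.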

Sequences with one replicate were seen in a single cluster, so their values are uncertain.
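Further: ATP exposure 15 min at 22 °C before imaging.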

As for TCCGAGCTTA, the switch fluorescence ratio was 5.05. The figure for TATTCATAGC is 0.969; for AACGATGTA it is 0.966; for CAAGTTGT it is 1.02. For GCGGCAGATC, the switch fluorescence ratio was 1.02. The same measure for TAGAAGCCTT: 1.01; for ACTTGGAACA: 1.04; for CGTCAATCCA: 1.09.

Turning to CCGCCGTGCC, the switch fluorescence ratio came out at 2.17. On to AAGTCCATCC, for which the switch fluorescence ratio came to 1.11.

Turning to GCTGCAGGTG, the switch fluorescence ratio was found to be 3.13. The same measure for GAGTCGCTTT: 0.969; for CATAAGCGTT: 0.995; for AGGCCTTCGT: 1.08. Take ATTGGACCCA: the switch fluorescence ratio stood at 1.04.

On to GAATTTGACC, for which the switch fluorescence ratio is 0.972.

For the sequence TTCCTATGGC, the switch fluorescence ratio came out at 1.01. As for AGCCATTCTT, the switch fluorescence ratio was 1.03. Consider GGCACGGGAC, for which the switch fluorescence ratio was determined as 1.06. As to AAAATCGCAG, the switch fluorescence ratio worked out at 1.06. TATTGCTCCG: the switch fluorescence ratio is 1.31.

Turning to ATTCATTCGA, the switch fluorescence ratio came out at 1.04. In the case of GTAGTCAACA, the switch fluorescence ratio worked out at 0.996. The figure for TCGGGGCATT is 1.04. Regarding TTCTGTGCTG, the switch fluorescence ratio is 0.979.

For GAATCGACC, the switch fluorescence ratio was 1.15. Regarding GAACCCCTAT, the switch fluorescence ratio came out at 1.02. The same measure for TGTATTTGTC: 1.02; for GGGACTTCTA: 1.02; for AATCCGGCGA: 1.26. Consider CGGGTGGGCG, for which the switch fluorescence ratio came out at 1.06. As to ACGGGGGAG, the switch fluorescence ratio was 0.921. The same measure for ACCCAGGTTG: 5.61. The figure for ATCTTTTGGA is 1.03; for ACCAGGGCA it is 1.01. CTGGGGACTA: the switch fluorescence ratio was determined as 1.02.

Regarding GTAAGGCCAG, the switch fluorescence ratio came out at 1.

On to TATTACAGAC, for which the switch fluorescence ratio was found to be 1.2.

GAATGGCCGG: the switch fluorescence ratio is 1.02. Take AGTCACGGTC: the switch fluorescence ratio is 1.01.

With TGTTACAGCC, the switch fluorescence ratio was found to be 1.01.

On to AGACTGTAAT, for which the switch fluorescence ratio was found to be 1.05. CCTTTGGG: the switch fluorescence ratio is 1.02. As to TTGAACGTA, the switch fluorescence ratio stood at 1.08.

Take AGGTTCTGCT: the switch fluorescence ratio was 0.956. With GAATGTGGTT, the switch fluorescence ratio was found to be 0.985.

With GATAGCTCCT, the switch fluorescence ratio was 1.01. Take TCCCGGAGGC: the switch fluorescence ratio was found to be 1.12. AGTGTTGTTA: the switch fluorescence ratio is 1.02. Consider TCTTCTCTGC, for which the switch fluorescence ratio is 1.16. Turning to CAGTTATTCT, the switch fluorescence ratio was determined as 0.995.

On to AGACTGACGT, for which the switch fluorescence ratio came to 1.25. The same measure for ATCCGTCGTT: 1.01; for GCTTAATGGC: 0.987; for TGTGAGGAGT: 1.01. Regarding ATATTAGGCC, the switch fluorescence ratio worked out at 1.03. Regarding TTAAACTGCT, the switch fluorescence ratio came out at 0.976. Consider GTTTCCATAT, for which the switch fluorescence ratio is 0.977. Consider GGGCTATGAC, for which the switch fluorescence ratio was found to be 0.998. On to GGAACGGCTT, for which the switch fluorescence ratio amounted to 0.994. With AGTCAACCT, the switch fluorescence ratio is 1.69. As to TGCGCCCCGG, the switch fluorescence ratio amounted to 1.01. As to CAGTGTTTAC, the switch fluorescence ratio came to 1.02. As to ATTAGTGCAC, the switch fluorescence ratio amounted to 0.999. For CTAGGAGTCC, the switch fluorescence ratio amounted to 1.02. The same measure for GTCCTCATGT: 1.03.

For AGACCATCCT, the switch fluorescence ratio was 1.34.

On to ATAACTCATT, for which the switch fluorescence ratio is 1.04. Take TTACTTGGT: the switch fluorescence ratio came out at 0.994.

With CAAGCGTTTT, the switch fluorescence ratio came out at 0.998. Turning to TCGGGCACTG, the switch fluorescence ratio was found to be 1.05. Regarding TAAACTCGCC, the switch fluorescence ratio was 1.12. For ATTCTTACTG, the switch fluorescence ratio turned out to be 1.05. The figure for AATCTTTCAA is 1.02. In the case of GCTGTTGG, the switch fluorescence ratio came to 0.996. Take CCCTGCGTGC: the switch fluorescence ratio turned out to be 4.01. For the sequence CCGATTAGTC, the switch fluorescence ratio amounted to 1.16.

For AGCAATATAG, the switch fluorescence ratio amounted to 2.13.

In the case of CCGGCTAGGT, the switch fluorescence ratio is 1.03. ACGACGGTCT: the switch fluorescence ratio stood at 1.17. Turning to CGGGGGTGAT, the switch fluorescence ratio was 1.08. Consider GCTTTAACGC, for which the switch fluorescence ratio turned out to be 1.07. Take GAGGCAATGT: the switch fluorescence ratio was found to be 5.07.

As for GTGGTATGCG, the switch fluorescence ratio was determined as 0.835. Regarding TGCGTTGAAG, the switch fluorescence ratio was 1.04. As to CGGTCGCAAT, the switch fluorescence ratio came out at 3.83. Take GTTTGGTGAC: the switch fluorescence ratio is 0.993.

On to GCTTAGAAGA, for which the switch fluorescence ratio came out at 1.09. As for CGGAGGTGG, the switch fluorescence ratio came out at 1.42. The same measure for CCCGGAGGGT: 1.02; for AATGACTACT: 0.977. The figure for AGATCTCCA is 0.969; for TTTCAATAAA it is 1.27; for GAGTACGATG it is 0.992. In the case of TCCCGGAGGG, the switch fluorescence ratio was determined as 0.995. TTGGAGAACA: the switch fluorescence ratio is 1.06. Take GACAGACGGA: the switch fluorescence ratio came to 1.33.

With GGTTGTCTGT, the switch fluorescence ratio amounted to 1. The figure for AGATCCGTAT is 0.984; for GGTCTATACG it is 1.01. Consider GAAGTTGGGG, for which the switch fluorescence ratio came to 0.951. With ATTCGTCATC, the switch fluorescence ratio was 1.05. For the sequence ATTGGGGCTC, the switch fluorescence ratio stood at 1.02. The figure for TGGTGTAATT is 1.05; for ACTAGTCATC it is 1.04; for TTTAAAAACT it is 0.974. For TATCAATGAG, the switch fluorescence ratio came out at 0.916. The same measure for ATTCCGGGT: 0.998. Consider TCCACATAAA, for which the switch fluorescence ratio worked out at 1.03. Consider TTGACCCGGA, for which the switch fluorescence ratio worked out at 0.985. As for AAAACTTTA, the switch fluorescence ratio worked out at 1.06. For the sequence AGGTATAAGT, the switch fluorescence ratio was 0.975.

Regarding CTTCTAAGAG, the switch fluorescence ratio came out at 0.972. As to CCTACAATAG, the switch fluorescence ratio came out at 4.45.

Take TCCATGGACT: the switch fluorescence ratio was found to be 1.03. Regarding CCCTCATGAG, the switch fluorescence ratio was 1.04. In the case of AGTTGAGATC, the switch fluorescence ratio was 0.938. As for GGGGCGTGGC, the switch fluorescence ratio came out at 1.02. Take AGGGCCGCAT: the switch fluorescence ratio was found to be 1.09. Regarding TCTATGCCAG, the switch fluorescence ratio came to 1.02.

(Values after the supplement of paper PMC10126150.)
